The record followed here is the supplement of paper PMC9446081.

Out of some 39,000 compounds screened, about 220 (0.56%) showed activity. The list shows a part of the results.
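Also: static incubation at 37 °C against the wild-type strain, values averaged over two biological replicates.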

For the experiment, the system named is Escherichia coli K-12 BW25113. Nature of the experiment: relative growth (OD600 normalised to plate interquartile mean) (fraction); higher = less growth inhibition, active = 0.2 or less. As to conditions: 50 µM; LB; incubation time: overnight (16-24 h).
For the compound `C[C@@H]1CN([C@H](C)CO)C(=O)c2c(c3ccccc3n2C)-c2ccccc2CO[C@@H]1CN(C)C(=O)Nc1cccc(C(F)(F)F)c1`, the relative growth is inactive: 1.01.

In the case of `Cc1cc(C(=O)Nc2cccc3c2O[C@@H](CN(C)Cc2ccc(Oc4ccccc4)cc2)[C@@H](C)CN([C@@H](C)CO)C3=O)n(C)n1`, the relative growth was inactive: 1.02.

On to `NS(=O)(=O)c1cc(C(=O)O)c(NCc2ccco2)cc1Cl`, for which the relative growth was inactive: 1.12.

Regarding `C[C@@H]1CCCCO[C@H](CN(C)Cc2ccc(C(F)(F)F)cc2)[C@@H](C)CN([C@H](C)CO)C(=O)c2cc(NS(=O)(=O)c3ccc(Cl)cc3)ccc2O1`, the relative growth is inactive: 1.05.

Consider `C[C@@H]1CCCCO[C@H](CN(C)Cc2ccc(C(F)(F)F)cc2)[C@H](C)CN([C@H](C)CO)C(=O)c2cc(NC(=O)c3ccncc3)ccc2O1`, for which the relative growth was inactive: 0.959.

Turning to `C[C@@H]1CCCCO[C@H](CN(C)Cc2ccc(C(F)(F)F)cc2)[C@H](C)CN([C@@H](C)CO)C(=O)c2cc(NC(=O)c3ccccc3)ccc2O1`, the relative growth was inactive: 0.982.

With `CC(C)NC(=O)N(C)C[C@@H]1Oc2cc(C#Cc3ccc(F)cc3)ccc2S(=O)(=O)N([C@@H](C)CO)C[C@H]1C`, the relative growth is inactive: 1.

Take `C[C@@H]1CN([C@@H](C)CO)C(=O)c2cc(NS(=O)(=O)c3cn(C)cn3)ccc2O[C@H]1CN(C)C(=O)Nc1ccc2c(c1)OCO2`: the relative growth is inactive: 1.01.

Regarding `CN(C)CC/C=C1/c2ccccc2Sc2ccc(Cl)cc21`, the relative growth is inactive: 0.82.

With `Cc1ccc(S(=O)(=O)N[C@H]2CC[C@@H](CC(=O)NCc3ccc(Cl)c(Cl)c3)O[C@H]2CO)cc1`, the relative growth is inactive: 0.856.

In the case of `Cc1ccc(S(=O)(=O)N[C@H]2C=C[C@H](CC(=O)NCCN3CCCCC3)O[C@H]2CO)cc1`, the relative growth is inactive: 0.982.

For `COc1ccc(S(=O)(=O)Nc2ccc3c(c2)C(=O)N(C)C[C@@H](OC)[C@H](C)CN(C(=O)NC(C)C)[C@H](C)CO3)cc1`, the relative growth was inactive: 1.13.

On to `C[C@@H]1CN([C@H](C)CO)S(=O)(=O)c2ccc(-c3ccccc3F)cc2O[C@H]1CN(C)S(C)(=O)=O`, for which the relative growth was inactive: 1.

For the compound `CN(C)C(=O)C[C@H]1CC[C@H](NC(=O)C2CC2)[C@@H](CO)O1`, the relative growth is inactive: 0.983.

As to `O=C(O)c1cc(=O)c2ccccc2o1`, the relative growth is inactive: 1.02.

For the compound `O=C(NC[C@@H](O)CO)c1c(I)c(C(=O)NC[C@@H](O)CO)c(I)c(N(CCO)C(=O)CO)c1I`, the relative growth was inactive: 0.976.

As to `OC[C@H]1CC[C@@H]2O[C@H](CCc3ccc(C#CCc4ccccc4)cc3)[C@H](n3cc(-c4ccccc4)nn3)C[C@@H]2O1`, the relative growth was inactive: 1.03.

Regarding `C[C@H](CO)N1C[C@H](C)[C@@H](CN(C)C(=O)C2CCOCC2)Oc2ncc(C#Cc3cccc(F)c3)cc2C1=O`, the relative growth was inactive: 1.01.

As for `COc1ccc(NC(=O)N(C)C[C@@H]2OCCCC[C@H](C)Oc3ccc(NS(=O)(=O)c4ccccc4)cc3C(=O)N([C@@H](C)CO)C[C@@H]2C)cc1`, the relative growth is inactive: 1.05.

As to `Cc1noc(C)c1NC(=O)Nc1ccc2c(c1)C(=O)N([C@H](C)CO)C[C@H](C)[C@@H](CN(C)C(=O)Nc1ccc3c(c1)OCO3)OCCCC[C@H](C)O2`, the relative growth is inactive: 1.04.

`C[C@H](CO)N1C[C@H](C)[C@@H](CN(C)Cc2ccc(C(=O)Nc3ccccc3N)cc2)Oc2ccc(NC(=O)Cc3ccccc3)cc2C1=O`: the relative growth is inactive: 1.01.

In the case of `C[C@@H]1CCCCO[C@@H](CN(C)C(=O)Nc2ccc(F)cc2)[C@H](C)CN([C@H](C)CO)C(=O)c2cc(NC(=O)Cc3ccccc3)ccc2O1`, the relative growth is inactive: 1.03.

Take `CSc1nc(=O)cc(O)[nH]1`: the relative growth was inactive: 1.01.

`CCO[C@H]1CC(C)(C)NC(=S)N1`: the relative growth was inactive: 0.829.

In the case of `C[C@@H]1CN([C@@H](C)CO)C(=O)c2cc(C#C[C@@H](C)O)cnc2O[C@H]1CN(C)C(=O)CN1CCOCC1`, the relative growth was inactive: 0.987.

As to `Cc1noc(C)c1S(=O)(=O)Nc1ccc2c(c1)CC(=O)N([C@H](C)CO)C[C@@H](C)[C@@H](CN(C)C(=O)Nc1ccc3c(c1)OCO3)O2`, the relative growth was inactive: 0.997.

Turning to `CCCC(=O)Nc1ccc2c(c1)C(=O)N(C)C[C@@H](OC)[C@@H](C)CN(Cc1ccc(-c3ccccn3)cc1)[C@@H](C)CO2`, the relative growth was inactive: 1.01.

As for `O=C(C1=C[C@@H](c2ccc(C(F)(F)F)cc2)C[C@@H](OCc2ccc(CO)cc2)O1)N1CCN(Cc2ccc3c(c2)OCO3)CC1`, the relative growth was inactive: 0.984.

In the case of `CCNC(=O)C[C@H]1C=C[C@@H](NC(=O)C2CCOCC2)[C@@H](CO)O1`, the relative growth was inactive: 1.

Consider `Cc1ccc(-c2ccc3c(c2)O[C@@H](CN(C)C(=O)NC(C)C)[C@@H](C)CN([C@H](C)CO)S3(=O)=O)cc1`, for which the relative growth is inactive: 0.961.

`CCNC(=O)[C@H]1N[C@H]2c3ccc(-c4cccc(C(=O)N(C)C)c4)c(=O)n3C[C@H]2[C@@H]1CO`: the relative growth is inactive: 1.

`C[C@@H]1O[C@@H](O[C@H]2[C@H](Oc3cc(O)c(C(=O)CCc4ccc(O)cc4)c(O)c3)O[C@H](CO)[C@@H](O)[C@@H]2O)[C@H](O)[C@H](O)[C@H]1O`: the relative growth is inactive: 0.977.

`COc1ccc(CN(C)C[C@H]2Oc3c(NC(=O)c4ccc(-c5nccs5)cc4)cccc3C(=O)N([C@H](C)CO)C[C@@H]2C)cc1`: the relative growth is inactive: 1.01.

For the compound `C[C@@H]1CN([C@@H](C)CO)C(=O)c2cc(C#Cc3cccc(F)c3)cnc2O[C@@H]1CN(C)C(=O)C1CCOCC1`, the relative growth was inactive: 1.05.

In the case of `COc1cccc(S(=O)(=O)N(C)C[C@@H]2Oc3ncc(C#CC(C)C)cc3C(=O)N([C@@H](C)CO)C[C@@H]2C)c1`, the relative growth was inactive: 1.01.

On to `COc1ccc(S(=O)(=O)N(C)C[C@H]2Oc3c(NC(=O)Nc4c(C)noc4C)cccc3C(=O)N([C@@H](C)CO)C[C@H]2C)cc1`, for which the relative growth is inactive: 1.02.

In the case of `COc1ccc(S(=O)(=O)N(C)C[C@@H]2Oc3ccc(N(C)C)cc3C(=O)N([C@@H](C)CO)C[C@H]2C)cc1`, the relative growth was inactive: 1.05.

As for `C[C@H](CO)N1C[C@H](C)[C@H](CN(C)C(=O)Nc2ccc(Cl)cc2)OCCCC[C@H](C)Oc2ccc(NC(=O)C3CCCCC3)cc2C1=O`, the relative growth is inactive: 0.989.

Consider `C[C@@H]1CCCCO[C@@H](CN(C)Cc2ccc(C(F)(F)F)cc2)[C@@H](C)CN([C@@H](C)CO)C(=O)c2cc(NS(=O)(=O)c3ccc(Cl)cc3)ccc2O1`, for which the relative growth is inactive: 1.04.

Regarding `Cc1cn(Cc2ccccc2)c(=O)[nH]c1=O`, the relative growth is inactive: 0.988.

As to `C[C@@H]1CN([C@H](C)CO)C(=O)c2cc(NC(=O)Cc3ccccc3)ccc2O[C@@H](C)CCCCO[C@H]1CN(C)C(=O)C1CCCCC1`, the relative growth is inactive: 0.992.

Regarding `COc1cccc(S(=O)(=O)N(C)C[C@@H]2Oc3ncc(-c4cccc(C(=O)N(C)C)c4)cc3C(=O)N([C@@H](C)CO)C[C@@H]2C)c1`, the relative growth is inactive: 1.01.

Turning to `C[C@@H]1CN([C@H](C)CO)C(=O)c2cccc(NC(=O)Nc3ccc(C(F)(F)F)cc3)c2O[C@@H]1CN(C)C(=O)Nc1ccccc1`, the relative growth was inactive: 0.865.

Regarding `CC(C)NC(=O)N[C@H]1C=C[C@H](CC(=O)NCCCN(C)C)O[C@H]1CO`, the relative growth was inactive: 1.

Take `C[C@@H]1CCCCO[C@@H](CN(C)C(=O)c2ccccc2)[C@@H](C)CN([C@@H](C)CO)C(=O)c2cc(NC(=O)Nc3ccccc3)ccc2O1`: the relative growth was inactive: 1.

Consider `O=C(CCc1cn(CC(=O)N2CCC3(CC2)C(=O)NCN3c2ccccc2)nn1)NO`, for which the relative growth was inactive: 0.974.

As for `C[C@@H]1CN([C@H](C)CO)C(=O)CCCn2nncc2CO[C@@H]1CN(C)C(=O)Nc1cccc(C(F)(F)F)c1`, the relative growth was inactive: 0.955.

Take `Cc1ccc(S(=O)(=O)N(C)C[C@@H]2OCCCC[C@H](C)Oc3ccc(NC(=O)Cc4ccccc4)cc3C(=O)N([C@H](C)CO)C[C@@H]2C)cc1`: the relative growth is inactive: 1.01.

Take `C[C@H]1CN([C@@H](C)CO)C(=O)c2cc(NC(=O)CCCN(C)C)ccc2O[C@H]1CN(C)C(=O)Nc1ccc(F)cc1`: the relative growth is inactive: 1.02.

Take `CC(C)CC#Cc1ccc2c(c1)O[C@H](CN(C)C(=O)NC1CCCC1)[C@@H](C)CN([C@H](C)CO)S2(=O)=O`: the relative growth is inactive: 1.04.

In the case of `C[C@@H]1CN([C@@H](C)CO)C(=O)CCCn2cc(nn2)CO[C@@H]1CN(C)S(=O)(=O)c1ccccc1C#N`, the relative growth is inactive: 0.992.

On to `Cc1cn2nc([C@@H]3CCCCN3C(=O)c3cc(Cl)ccc3NS(C)(=O)=O)cc2nc1N1CC[C@H](N)C1`, for which the relative growth is inactive: 0.981.

As for `C[C@@H]1CN(S(=O)(=O)N2CCN(C(=O)c3[nH]nc4ccccc34)CC2)C[C@H](C)O1`, the relative growth was inactive: 1.02.

Turning to `C[C@@H]1CN([C@@H](C)CO)C(=O)c2cc(N(C)C)ccc2O[C@@H](C)CCCCO[C@H]1CN(C)Cc1ccc(C(F)(F)F)cc1`, the relative growth is inactive: 0.991.

`C[C@@H]1CN([C@H](C)CO)C(=O)c2cc(NC(=O)Nc3ccc(F)cc3)ccc2O[C@@H]1CN(C)Cc1ccc(Cl)c(Cl)c1`: the relative growth is inactive: 0.994.

Regarding `C[C@@H]1CCCCO[C@H](CN(C)C(=O)c2ccccc2)[C@H](C)CN([C@@H](C)CO)C(=O)c2cc(NS(=O)(=O)c3ccccc3)ccc2O1`, the relative growth is inactive: 1.01.

`Cn1cnc(S(=O)(=O)N[C@H]2CC[C@H](CC(=O)N3CCN(c4ccccc4)CC3)O[C@@H]2CO)c1`: the relative growth was inactive: 0.999.

Take `Cc1noc(C)c1S(=O)(=O)Nc1cccc2c1O[C@H](CN(C)CC1CC1)[C@H](C)CN([C@@H](C)CO)C2=O`: the relative growth is inactive: 0.982.

For the compound `C[C@@H]1CCCCO[C@@H](CN(C)S(C)(=O)=O)[C@H](C)CN([C@@H](C)CO)C(=O)c2cc(NC(=O)Nc3cccc4ccccc34)ccc2O1`, the relative growth was inactive: 0.956.

As for `Cc1c(N(C)CS(=O)(=O)[O-])c(=O)n(-c2ccccc2)n1C.[Na+]`, the relative growth was inactive: 1.01.
